This experiment has as its system NCI-H322M lung. The experiment can be described thus: NCI-60 cell line screen, 48 h.

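Step 1: Grow cells in 96-well plates. Step 2: Expose to compound for 48 hours at 5 concentrations. Step 3: Interpolate endpoints linearly; if unreached, use highest concentration. GI50 is the concentration that inhibits growth by half. The concentration for full growth arrest is given as TGI.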

`CCOC(=O)c1sc(N/N=C(\C)c2ccc3c(c2)Nc2ccccc2S3)nc1C`: the GI50 was 10.4 µM and the TGI was 31.2 µM.
For `COc1csc(/C=N/NC(=O)c2[nH]c3ccc(Br)cc3c2-c2ccccc2)c1` the same measures were 0.145 µM and > 100 µM.

(Values after PubChem BioAssay (NCI).)
